# Several values for one entry are separate records, joined by “and”; a condition that tells them apart may be missing. Identical values can stand only once. Hit rate of the full screen: of about 73,000 compounds, about 1,800 (2.5%) were called active. About 13% were inconclusive and are not listed. The call rests on the fitted dose curve; in most records, active means well fitted activation curve with a large enough effect; inconclusive means small, poorly fitted or top-dose-only effect; inactive means no such curve, though single readings can be large or run the other way. Only a part is listed here, and it is no random draw. Some structures have more than one record in an assay (separate samples or runs), and their calls can disagree.
# Experiment: qHTS Assay for Agonists of the Thyroid Stimulating Hormone Receptor: Activators of Intracellular cAMP Concentrations in Parental HEK 293; further: nearly all actives have a fitted effect of over 55% in size; on activation: % of control where 0% means no effect
# Settings: parental HEK293 CNG cAMP sensor, membrane potential fluorescence; series mostly up to 57.1 µM; activation: at the top concentration
# Excerpt: NIH Chemical Genomics Center [NCGC]
# NIH Molecular Libraries Screening Centers Network [MLSCN]
# PI Name: Dr. Marvin Gershengorn
# This cell based assay utilized a cyclic nucleotide gated ion channel (CNG) as a biosensor for cAMP induction. HEK 293 cells stably expressing the modified CNG were purchased from BD biosciences (http://www.atto.com/products/actone/features_benefits.shtml) . Stimulation of cAMP production causes the CNG to open and subsequent membrane depolarization to occur. A fluorescent membrane potential dye (BD biosciences) was utilized to detect cAMP stimulation in cells.
# The cells were maintained in DMEM medium (Invitrogen) containing 10 % FBS (Hyclone), 100 units/ml Penicillin, 100 ug/ml Streptomycin (Invitrogen), and 250 ug/ml Geneticin (Invitrogen) and 1 ug/ml Puromycin (Invitrogen) at 37C in 5% CO2. This assay was used as a counterscreen to "qHTS Assay for Agonists of the Thyroid Stimulating Hormone Receptor", to control for compounds signaling through endogenous receptors and other targets of HEK 293 cells.
# NCGC Assay Protocol Summary:
# High Throughput Screening. Freshly passaged cells were dispensed into 1536-well assay plates at 4 ul/well in DMEM containing phenol red (Invitrogen), 10% FCS (Hyclone), and 100 units/ml Penicillin, 100 ug/ml Streptomycin (Invitrogen) and incubated at 37 C with 5% CO2 for 20 to 36 hrs before the robotic screening. The screen was initiated by addition of 4 ul/well membrane potential dye containing 100 uM RO 20-1724 (Sigma Aldrich), followed by 60 min incubation at room temperature to allow for dye equilibration across the cell membrane. 23 nl/well compound or control was then added to the assay plates, which were incubated for additional 30 min before reading a Envision fluorescence plate reader (Perkin Elmer) in bottom-read mode for fluorescence intensity (emission at 590 nm).
# Keywords: cAMP, CNG Ion Channel, quantitative high throughput screening, qHTS, HTS, probe identification, CNG, cAMP, cyclic nucleotide gated ion channel PubChem
# Potency means the concentration at half of the fitted maximal effect.
SMILES,activation,Potency
C=C[C@@H]1CN2CC[C@@H]1C[C@H]2[C@H](O)c1ccnc2ccccc12,inactive: 7.15%,
C=C[C@H]1CN2CC[C@@H]1C[C@H]2[C@@H](O)c1ccnc2ccccc12,,inactive
CCOc1ccc(N)cc1,inactive: 39%,
Nc1c(Br)cc(Br)cc1CNC1CCC(O)CC1 (stereo not drawn),inactive: 8.4% [at 25.6 µM],
CCCN1CCO[C@@H]2c3cc(O)ccc3OC[C@H]21,inactive: 5.58%,
COC(=O)Cc1cc(=O)n(-c2ccccc2)[nH]1,inactive: -39.1%,
CC(C)N(CC[C@@](C(N)=O)(c1ccccc1)c1ccccn1)C(C)C,,inactive
CN(C)C(=O)Cl,inactive: 14.4%,
N#Cc1ccccc1,inactive: 12.3%,
ClCCCCl,inactive: -4.27%,
CC(C)CCn1c(N)c(C(=O)OCC2CCCO2)c2nc3ccccc3nc21 (stereo not drawn),,active: 20 µM
CC(=O)C(C)=O,,inactive
C[C@]12CCC(=O)C=C1CC[C@@H]1[C@@H]2CC[C@]2(C)C(=O)CC[C@@H]12,,inactive
O=S(=O)(O)F,inactive: -24.4%,
C/C=C/CC#N,inactive: -96.7%,
Oc1ccc2c3c1O[C@H]1c4[nH]c5c(c4C[C@@]4(O)[C@@H](C2)N(CC2CC2)CC[C@]314)C[C@]1(O)[C@H]2Cc3ccc(O)c4c3[C@@]1(CCN2CC1CC1)[C@@H]5O4,inactive: -3.81%,
NC(=S)Nc1ccccc1,,inactive
CCC(=O)O[C@H]1CC[C@H]2[C@@H]3CCC4=CC(=O)CC[C@]4(C)[C@H]3CC[C@]12C,,active: 15.8 µM
Cc1ccc(N)cc1[N+](=O)[O-],inactive: -7.62%,
CC(C)CC(N)C1(c2ccc(Cl)cc2)CCC1 (stereo not drawn),inactive: 21.9%,
CC(Cl)Cl,inactive: -10.7%,

SMILES,activation,Potency
NCCc1c[nH]c2ccc(C(N)=O)cc12,inactive: 1.37%,
CC[C@H](CO)NC(=O)[C@H]1C=C2c3cccc4[nH]cc(c34)C[C@@H]2N(C)C1,inactive: 6.42% [at 25.6 µM],
Oc1c(Cl)c(Cl)c(Cl)c(Cl)c1Cl (tested in a mixture with another compound),inactive: 29.9% [at 11.4 µM] and inactive: 25.3% [at 11.4 µM],
COc1cc(C[C@H](C)N)c(OC)cc1I,inactive: 11.7%,
O=[N+]([O-])c1ccc(O)c([N+](=O)[O-])c1,inactive: 16.6%,
O=C(O)C(Br)CBr (stereo not drawn),inactive: -15.6%,
O=C(CCCN1CCC2(CC1)C(=O)N(Cc1cccc(F)c1)CN2c1ccccc1)c1ccc(F)cc1,inactive: -37%,
CCCCCCCCCCCCCl,inactive: -17%,
CN1C(=O)CCS(=O)(=O)[C@@H]1c1ccc(Cl)cc1,inactive: -2.27% [at 25.6 µM],
CCCC/C=C/[C@@H](NP(=O)(c1ccccc1)c1ccccc1)c1ccccc1OC,,active: 2 µM
CCOC(=O)CNC(=O)CSP(=S)(OCC)OCC,inactive: 7.63%,
O=C(CCC1CCCC1)c1c(O)c2ccccc2oc1=O,inactive: 7.68%,
CCCC(=O)Cl,inactive: 24%,
C[C@@H](COc1ccccc1)N(CCCl)Cc1ccccc1,inactive: 10.4% [at 25.6 µM],
Oc1cc(Cl)cc(Cl)c1Cl,inactive: 24.5%,
O[C@H]1CCCC[C@H]1N1CCC(c2ccccc2)CC1,inactive: 18.7% [at 25.6 µM],
CC(=O)NCCc1c[nH]c2ccccc12,inactive: -2.88%,
O=C(O)CCl,inactive: -33.2%,
CP(=O)(O)CCCN,,inactive
CCCCCCCCCCCOC(=O)c1ccccc1C(=O)OCCCCCCCCCCC,inactive: -17.9%,
OCC(CBr)(CBr)CBr,inactive: 4.88%,

SMILES,activation,Potency
O=C(O)c1ccc(C(=O)O)cc1,inactive: 20.6%,
N[C@H](CP(=O)(O)O)C(=O)O,inactive: -0.313%,
ClC(Cl)(Cl)Cl,,inactive
CCOC(=O)c1c(C)n(CCOC)c2ccc(O)cc12,inactive: -53.4%,
N[C@H](CCP(=O)(O)O)C(=O)O,,inactive
CN1[C@@H]2CC(OC(=O)[C@@H](CO)c3ccccc3)C[C@H]1[C@H]1O[C@H]12 (stereo partly drawn),inactive: -6.54%,
CC[N+](=O)[O-],inactive: 10.6%,
Nc1cccc2c(N)cccc12,inactive: 17%,
CCOP(=S)(OCC)Oc1cc(C)nc(C(C)C)n1,inactive: -30.9%,
c1ccc(N=NNc2ccccc2)cc1,inactive: -5.21%,
CC[N+](CC)(CC)CCOc1cccc(OCC[N+](CC)(CC)CC)c1OCC[N+](CC)(CC)CC,inactive: -3.44% [at 25.6 µM],
Nc1ccc(Oc2ccc(N)cc2)cc1,inactive: -3.33%,
COc1c2ccoc2cc2oc(=O)ccc12,,inactive
CC(C)NC[C@H](O)COc1cccc2[nH]ccc12,inactive: 5.09%,
O=Nc1ccc(Nc2ccccc2)cc1,inactive: -21.2%,
C(CCOCC1CO1)COCC1CO1 (stereo not drawn),inactive: 25.4%,
Cc1ccc([N+](=O)[O-])cc1C,inactive: -2.99%,
C[C@]12CC[C@H]3[C@@H](CCC4=CC(=O)CC[C@@]43C)[C@@H]1CC[C@@H]2O,inactive: -31.7%,
CC(C)c1ccc2c(c1)CC[C@H]1[C@@](C)(CN)CCC[C@@]21C,inactive: -6.92% [at 11.4 µM],
Cc1cccc([N+](=O)[O-])c1,inactive: 3.48%,
N#Cc1ccc(CN2CCCC3(CCN(C(=O)Oc4ccccc4)CC3)C2)cc1,,active: 15.8 µM

# From PubChem BioAssay AID938 (National Center for Advancing Translational Sciences (NCATS), 2007)
